Test results from the supplement of paper PMC10338343.
± gives the standard deviation. Over roughly 5,500 sequences, “pre-steady-state target cleavage rate” has its median near 0.1; the highest 2% begin near 0.64. Only a part is listed here, and it is no random draw.

What follows are sequences tested on MIWI (PIWIL1) piRISC loaded with piRNA #2 (30 nt) (assay: pre-steady-state target cleavage rate (min^-1); MIWI and MILI are mouse PIWI proteins and EfPiwi is from a freshwater sponge; tags in brackets are library labels; higher = faster piRNA-guided slicing of the target). Details: guide: piRNA #2 5'p-UUAGGUAACCCAGUAGAUCCAGAGGAAUUC; auxiliary factor: 500 nM mouse GTSF1.
Protocol: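 Cleave-'n-Seq: a library of target RNAs (target site embedded in constant flanks, ACAGCATTCCGCGTTAGTGATATCCG... 5' flank; DNA-blocked outside the site) at 0.1 nM was incubated with 1 nM active mouse MILI or MIWI piRISC (synthetic 5'-monophosphorylated piRNA guide) with or without 500 nM mouse GTSF1 at 33 °C for 1 min to 16 h. Uncleaved targets were sequenced and normalised to non-target controls, and the pooled three trials were fitted to a burst-and-steady-state model to give the pre-steady-state cleavage rate (min^-1; k3 is constrained to at most 1e-4). Sequence is the target site only; target names encode pairing extent (gX:gY) and contiguous / 1-mismatch / 2-mismatch / bulge geometry. Fits with R² ≤ 0 are excluded.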

Row | Sequence | pre-steady-state target cleavage rate
1 | CUUAACGUCUGGAUCUACUGGGUUUCCUAA | 0.187 ± 0.021
2 | CUUAAGCUCUGGAUCUACGGGUUACCUAA | 0.0238 ± 0.0057
3 | GAAUUCCUCUGGAUCUACUGGCGUUACCUAA | 0.0102 ± 0.0041
4 | CUUUUGCUCUGGAUCUACUGGGUUACCAAA | 0.292 ± 0.036
5 | GUAUUCCUCUGGAUCUACUGCGUUACCUAA | 0.267 ± 0.049
6 | CUUAAGGUCUGGAUCUACUGCGUUUCCUAA | 0.0557 ± 0.014
7 | CAUUUCCUCUGGAUCUACUGGGUUUCCUAA | 0.46 ± 0.066
8 | CAAUUCCUCUGGAUCUACAGGGUUACGUAA | 0.298 ± 0.041
9 | CUUAUCCUCUGGUUCUACUGGGUAACCUAA | 0.0868 ± 0.016
10 | CUUAAGCUCUAGGAUCUACUGGGUUACCUAA | 0.15 ± 0.018
11 | CUAUUCCUCUGGAACUACAGGGUUACCUAA | 0.334 ± 0.028
12 | CAAAUCCUCUCGAUCUACUGGGUUACCUAA | 0.641 ± 0.05
13 | CUAUUCCUCUGGAUCUACUGGAUUACCUAA | 0.334 ± 0.037
14 | CUUAAGGACAGGAUCUACUGGGUUACCAAA | 0.0161 ± 0.011
15 | CUUAAGGACAGGAUCUAGUGGGUUACCUAA | 0.00774 ± 0.0051
16 | CAAUUCCUCUGGAUCUACUGGCUAACCUAA | 0.0107 ± 0.0051
17 | CUUAAGCACAGGAUCUACUGGGUUACCUAA | 0.0496 ± 0.011
18 | GAAUUCCUCUGGAUCUACUGCGUUACGUAA | 0.474 ± 0.066
19 | CUAAAGCUCUGGAUCUACUGGGUUACCUAA | 0.0853 ± 0.018
20 | CUUAACCUCUGGAUCUACUGGGUGUACCUAA | 0.129 ± 0.015
21 | CUAUUCCUCUGGAUCUUCUGGGAUACCUAA | 0.15 ± 0.022
22 | CUUAACCUCUGGAUCUACUGGGAAUCCUAA | 0.0514 ± 0.014
23 | CUUAUCGUCUGGAUCUACUGGGUUACGUAA | 0.521 ± 0.088

Row | Sequence | pre-steady-state target cleavage rate
24 | CUUUUCCUCUGGUUCUACUGGGUUAGCUAA | 0.306 ± 0.051
25 | GAAUUCCUCUGGAUCUACUGCGUUAGCUAA | 0.0176 ± 0.01
26 | CUUAAGCUCUGGAUCUACUGGGUCUACCUAA | 0.118 ± 0.013
27 | CUUUUCCACUGGAUGUACUGGGUUACCUAA | 0.426 ± 0.039
28 | CUUUUCCUGUGGAUCUACUGCGUUACCUAA | 0.399 ± 0.054
29 | CAAUUCCUCUGGAUCUACUGGGUUACCUCAA | 0.429 ± 0.047
30 | CUUAAGGUCUGGAUCUACUGGCUUACCAAA | 0.0139 ± 0.0087
31 | CUUAUCCUCUGGAUCUACUGGGAAUCCUAA | 0.212 ± 0.07
32 | CAAUUCCUCUGGAUCUACAGGGUUACCUUA | 0.245 ± 0.026
33 | CUAUUCCUCUGGAUCUACUGGGUUACCAA | 0.506 ± 0.067
34 | CUUAAGGACUGGCUCUACUGGGUUACCUAA | 0.142 ± 0.051
35 | CAAUUACCUCUGGAUCUACUGGGUUACCUAA | 0.39 ± 0.061
36 | CAAUUCCUCUGGAUCUAUGGGUUACCUAA | 0.0125 ± 0.0042
37 | CUUAACCUCUGGAUCUACUGGGUUACGAAA | 0.146 ± 0.015
38 | CUUUUCCUCUGGUUCUACUGGCUUACCUAA | 0.14 ± 0.016
39 | CUUAUCGUCUGGAUCUACUGCGUUACCUAA | 0.323 ± 0.041
40 | CUUAAGCUCUGGAUCUACUGGGUUACGAAA | 0.112 ± 0.015
41 | CUUAAGGACUGGAACUACUGGGUUACGUAA | 0.221 ± 0.076
42 | CUUAAGGUCUGCAUCUACUGGGUUUCCUAA | 0.024 ± 0.0062
43 | CUUAAGGACUGGAUCUACUGGAUUACCUAA | 0.149 ± 0.049
44 | CUUAUCCUCCUGGAUCUACUGGGUUACCUAA | 0.438 ± 0.047
45 | CUUAACCUCAGGAUCUUCUGGGUUACCUAA | 0.252 ± 0.036
46 | CUUAACGUCUGGAUCUACAGGGUUACCUAA | 0.123 ± 0.0083

Row | Sequence | pre-steady-state target cleavage rate
47 | CUUAUGCUCUCGAUCUACUGGGUUACCUAA | 0.349 ± 0.026
48 | CUUAAGCUCUGGAUCAACUGGGAUACCUAA | 0.0594 ± 0.0098
49 | CUUAAGCUCUGGAUCUACUGGCUUACCAAA | 0.0454 ± 0.014
50 | CUUUUCGUCUGGAUCUACUGGGUUACGUAA | 0.459 ± 0.069
51 | CUUAAGCUCUGGGUCUACUGGGUUACCUAA | 0.119 ± 0.013
52 | GAAUUCCAGUGGAUCUACUGGGUUACCUAA | 0.635 ± 0.046
53 | CUUAAGGUCUCGAUCUACUGGGUUACCAAA | 0.135 ± 0.024
54 | GAAUUCCUCUGGUUCUUCUGGGUUACCUAA | 0.499 ± 0.065
55 | GAAUUCCUCUGGAUUUACUGGGUUACCUAA | 0.425 ± 0.073
56 | CUAUUCCUCUGGAUCUACUGGGUAACCUAA | 0.231 ± 0.042
57 | GAAUUCCUCUAGAUCUACUGGGUUACCUAA | 0.731 ± 0.05
58 | CUUAAGGUCUGGAUCUACAGGGUUAGCUAA | 0.0899 ± 0.021
59 | GAAUUCGUCAGGAUCUACUGGGUUACCUAA | 0.374 ± 0.057
60 | CUUUUCCUCUGGAUCUACUGGGUUCACCUAA | 0.345 ± 0.042
61 | CUUAUCCUCUGGAUCUACUGGUUUACCUAA | 0.269 ± 0.028
62 | CUAUACCUCUGGAUCUACUGGGUAACCUAA | 0.304 ± 0.06
63 | CUUAUGCUGUGGAUCUACUGGGUUACCUAA | 0.236 ± 0.041
64 | CUUAUCCUCUGGAUCUACUGGCUAACCUAA | 0.0104 ± 0.0045
65 | CUUAAGCUCUGGAUCUACUGGGUUAGGAAA | 0.0375 ± 0.013
66 | CUUAAGCUCUGGAACUACUGGGUUACGUAA | 0.357 ± 0.033
67 | CUUAAGCUCUGGAUCUAGUCGGUUACCUAA | 0.00488 ± 0.0048
68 | CUUUACCUCUGGAUCUAGUGGGUUACCUAA | 0.0935 ± 0.0082
69 | CUUAAGCUCUGGAUCUACUCCGUUACCUAA | 0.0175 ± 0.0067

Row | Sequence | pre-steady-state target cleavage rate
70 | GAAUUGCUCUGGUUCUACUGGGUUACCUAA | 0.158 ± 0.041
71 | GAAUUCCUGUGGUUCUACUGGGUUACCUAA | 0.313 ± 0.032
72 | CUUAAGGACUGGAUCUACUGGGUUACCUAU [g2:g22:cont:t1U] | 0.131 ± 0.046
73 | CUUAACCUCUGGAUCUAGUGGGUUACCUUA | 0.0713 ± 0.0073
74 | CUAUUCCUCUGGAUCUAGUGGGUUACCAAA | 0.112 ± 0.02
75 | CUUAUACUCUGGAUCUACUGGGUUACCUAA | 0.116 ± 0.023
76 | GAAUUCCUCUAGGAUCUACUGGGUUACCUAA | 0.348 ± 0.074
77 | CUUAUCCUCUCCUUCUACUGGGUUACCUAA | 0.419 ± 0.034
78 | GAAUUCCUCUGGAUCUACUGGGUUAUCCUAA | 0.263 ± 0.042
79 | CUUAUCCUCUGGAUCUAAUGGGUUACCUAA | 0.172 ± 0.022
80 | CUUAAGGAGUGGAUCUACUGGGUUACCUUA | 0.0783 ± 0.016
81 | CUAUUGGUCUGGAUCUACUGGGUUACCUAA | 0.355 ± 0.041
82 | CUUAUCCUCGGGAUCUACUGGGUUACCUAA | 0.334 ± 0.084
83 | CUAUUCCUCAGGUUCUACUGGGUUACCUAA | 0.584 ± 0.05
84 | CUUAAGGAGUGGAUCUACUGGGUUACCCAA | 0.0404 ± 0.017
85 | CUAUUCCACUGGAUCUACUGGGUUACCUAA | 0.588 ± 0.061
86 | CUUAUCCUCUGGAUCUAGUGGGUUACGUAA | 0.212 ± 0.026
87 | CUUAUCCACUGGAUCUACUGGGUUACCAAA | 0.348 ± 0.042
88 | GAAUUCCUCUGGAUCUACUGGCUUACGUAA | 0.0974 ± 0.024
89 | CUUUUCCUCUGGAUCAACAGGGUUACCUAA | 0.191 ± 0.02
90 | CUUUUCCUCUGCAUCUACUCGGUUACCUAA | 0.0886 ± 0.011
91 | CUUAAGGAGACCUUCUAGUGCGUUACCUAA | 0.00596 ± 0.0031
92 | CUUAAGGAGAGGAUCUACUGGGUUACACUAA | 0.00526 ± 0.004
